The results in this text go back to a collection of fitness landscapes (doi:10.1016/j.celrep.2020.107928).

The full ranking holds about 81,000 sequences; the median of “one-hybrid fitness for binding parS DNA” is about -0.17, and the highest 2% start at about 0.51. The list shows a part of the results.

The labels stand for the following.
B1: Caulobacter ParB omega fusion; a variant is named by its letters at X, in order, B8GW30 (parent)
chain: MESVVVGEPGMSEGRRGLGRGLSALLGEVDAAPAQAPGEQLGGSREAPIEILQRNPDQPRRTFREEDLEDLSNSIREKGVLQPILVRPSPDTAGEYQIVAGERAWRAAQRAGLKTVPIMVRELDDLAVLEIGIIENVQRADLNVLEEALSYKVLMEKFERTQENIAQTIGKSXSHVANXMRLLXLPDEVQSYLVSGELTAXHARAIAAAADPVALAKQIIEGGLSVRETEALARKAPNLSAGKSKGGRPPRVKDTDTQALESDLSSVLGLDVSIDHRGSTGTLTITYATLEQLDDLCNRLTRGI

The variants in this test derive from B1. Nature of the test: one-hybrid fitness for binding parS DNA (scaled: cognate 1, non-cognate 0); higher = stronger binding. Particulars: with parS DNA site. Put shortly:
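On M9-minus-histidine containing 0.1 mM IPTG and 5 mM 3-AT, E. coli USO cells with a HIS3 reporter, site 19 bp from the promoter, grew 48 hours at 37°C to select Caulobacter ParB libraries randomised at four specificity codons. Plasmids from before and after were Illumina-sequenced, with three replicate libraries pooled and variants under 10 reads left out. Fitness is the log change in variant-to-wild-type read ratio, rescaled against cognate and non-cognate.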
Regarding RTHP, the “one-hybrid fitness for binding parS DNA” value was ≤ 0.2. To LTHV belongs ≤ 0.2; to HPMG, ≤ 0.2; to KPKA, ≤ 0.2. For DIHG the value was ≤ 0.2. For YMYT the value was ≤ 0.2; for NNYA, ≤ 0.2; for TYEK, ≤ 0.2.

With DLAL, the “one-hybrid fitness for binding parS DNA” value was ≤ 0.2.

For QHSD, the “one-hybrid fitness for binding parS DNA” value is ≤ 0.2. For PTPN, the “one-hybrid fitness for binding parS DNA” value is ≤ 0.2. For RNGH the value was ≤ 0.2. For QMKC the value was ≤ 0.2; for TCKG, ≤ 0.2. To QTII belongs ≤ 0.2; to LLAD, ≤ 0.2; to LETR, ≤ 0.2.

As to AHHN, the “one-hybrid fitness for binding parS DNA” value was ≤ 0.2. For TPLQ the value was ≤ 0.2; for NVSI, ≤ 0.2.

With PCQI, the “one-hybrid fitness for binding parS DNA” value was ≤ 0.2. For QLSR the value was ≤ 0.2.

Consider RYNK, for which the “one-hybrid fitness for binding parS DNA” value was ≤ 0.2. To GLQR belongs ≤ 0.2. Regarding KPDG, the “one-hybrid fitness for binding parS DNA” value is ≤ 0.2. To TAIL belongs ≤ 0.2; to NRET, ≤ 0.2. As for QLQE, the “one-hybrid fitness for binding parS DNA” value was ≤ 0.2. Take IAAR: the “one-hybrid fitness for binding parS DNA” value is ≤ 0.2. For FPAQ the value was ≤ 0.2. EMSE: the “one-hybrid fitness for binding parS DNA” value is ≤ 0.2. To VTVW belongs ≤ 0.2; to TWMC, ≤ 0.2. For PAQI, the “one-hybrid fitness for binding parS DNA” value was ≤ 0.2.

In the case of VRIG, the “one-hybrid fitness for binding parS DNA” value was ≤ 0.2. With EANS, the “one-hybrid fitness for binding parS DNA” value is ≤ 0.2. In the case of SCAT, the “one-hybrid fitness for binding parS DNA” value was ≤ 0.2.

Turning to HEYR, the “one-hybrid fitness for binding parS DNA” value is ≤ 0.2. To TPND belongs ≤ 0.2.

In the case of CPMK, the “one-hybrid fitness for binding parS DNA” value was ≤ 0.2.

As to TIRQ, the “one-hybrid fitness for binding parS DNA” value is ≤ 0.2. Consider SFSI, for which the “one-hybrid fitness for binding parS DNA” value is ≤ 0.2. As to QAHW, the “one-hybrid fitness for binding parS DNA” value is ≤ 0.2. For GDCR the value was ≤ 0.2; for YTIS, ≤ 0.2.

On to ALLA, for which the “one-hybrid fitness for binding parS DNA” value is ≤ 0.2. For QDRR the value was ≤ 0.2; for VLSY, ≤ 0.2. For MSTV the value was ≤ 0.2; for QGSD, ≤ 0.2; for HRYA, ≤ 0.2. As to HYLS, the “one-hybrid fitness for binding parS DNA” value is ≤ 0.2. To PSFG belongs ≤ 0.2; to RLHD, ≤ 0.2. To PRMA belongs ≤ 0.2; to FSEG, ≤ 0.2; to VWPF, ≤ 0.2.

Take TICW: the “one-hybrid fitness for binding parS DNA” value was ≤ 0.2. For RVFR the value was ≤ 0.2.

For the variant QVQS, the “one-hybrid fitness for binding parS DNA” value was ≤ 0.2. To TRKD belongs ≤ 0.2; to AQSI, ≤ 0.2; to KYPR, ≤ 0.2. To MLFL belongs ≤ 0.2; to LFPK, ≤ 0.2.

Regarding RLWM, the “one-hybrid fitness for binding parS DNA” value was found to be 0.342.

Turning to KHHG, the “one-hybrid fitness for binding parS DNA” value was ≤ 0.2. For RWAS the value was 0.876; for KTVR, ≤ 0.2; for CKVG, ≤ 0.2.

Take KAIL: the “one-hybrid fitness for binding parS DNA” value was ≤ 0.2. To VLAL belongs ≤ 0.2; to GVNS, ≤ 0.2; to HDTK, ≤ 0.2. For TRVD, the “one-hybrid fitness for binding parS DNA” value is ≤ 0.2. For EVGG the value was ≤ 0.2; for SLMN, ≤ 0.2; for WTWG, ≤ 0.2.

Regarding TLMN, the “one-hybrid fitness for binding parS DNA” value was ≤ 0.2.

In the case of KVVC, the “one-hybrid fitness for binding parS DNA” value was ≤ 0.2.

For FNLS, the “one-hybrid fitness for binding parS DNA” value was ≤ 0.2. Consider RGPN, for which the “one-hybrid fitness for binding parS DNA” value was ≤ 0.2. For NGST the value was ≤ 0.2; for RFCC, 0.87; for LGIE, ≤ 0.2. For SKMI the value was ≤ 0.2. To PVRW belongs ≤ 0.2; to KVNS, ≤ 0.2. In the case of KFPL, the “one-hybrid fitness for binding parS DNA” value is ≤ 0.2. For PWSF the value was ≤ 0.2; for FTNG, ≤ 0.2; for TDSC, ≤ 0.2. As for LMVT, the “one-hybrid fitness for binding parS DNA” value was ≤ 0.2.

For YLGP, the “one-hybrid fitness for binding parS DNA” value is ≤ 0.2.

RCMM: the “one-hybrid fitness for binding parS DNA” value was 0.344. For QVFS the value was ≤ 0.2; for ACCY, ≤ 0.2. For RKYV the value was ≤ 0.2.

Regarding SRCS, the “one-hybrid fitness for binding parS DNA” value is ≤ 0.2. As to TCNE, the “one-hybrid fitness for binding parS DNA” value was ≤ 0.2. To CWSR belongs ≤ 0.2.

Consider RFAH, for which the “one-hybrid fitness for binding parS DNA” value was ≤ 0.2.

As to TTDI, the “one-hybrid fitness for binding parS DNA” value is ≤ 0.2. RYDV: the “one-hybrid fitness for binding parS DNA” value is ≤ 0.2. For QPVC the value was ≤ 0.2.

As to WSVT, the “one-hybrid fitness for binding parS DNA” value was ≤ 0.2.

In the case of LYKW, the “one-hybrid fitness for binding parS DNA” value was ≤ 0.2. For YHDS the value was ≤ 0.2; for CHIP, ≤ 0.2. To PWIN belongs ≤ 0.2. As for HKCR, the “one-hybrid fitness for binding parS DNA” value is ≤ 0.2. For VGRC the value was ≤ 0.2. To LRVL belongs ≤ 0.2. To SLHN belongs ≤ 0.2. Take WQCR: the “one-hybrid fitness for binding parS DNA” value was ≤ 0.2. NFLC: the “one-hybrid fitness for binding parS DNA” value was ≤ 0.2. For KCAW the value was ≤ 0.2. Consider QVRD, for which the “one-hybrid fitness for binding parS DNA” value was ≤ 0.2. For QTYD the value was ≤ 0.2.

Take WMKT: the “one-hybrid fitness for binding parS DNA” value was ≤ 0.2. For QRRH the value was ≤ 0.2; for RFTW, 0.219. Regarding GSCG, the “one-hybrid fitness for binding parS DNA” value was ≤ 0.2. For SYKW the value was ≤ 0.2; for SLRP, ≤ 0.2. Take IGGV: the “one-hybrid fitness for binding parS DNA” value is ≤ 0.2.

In the case of TKNS, the “one-hybrid fitness for binding parS DNA” value is ≤ 0.2. To NQFM belongs 0.317; to DRWE, ≤ 0.2. For QHPD the value was ≤ 0.2; for TLPA, ≤ 0.2. To DAKK belongs ≤ 0.2; to TVLM, ≤ 0.2; to TRWD, ≤ 0.2. For the variant PPEV, the “one-hybrid fitness for binding parS DNA” value was ≤ 0.2. To VAPF belongs ≤ 0.2; to FRVT, ≤ 0.2. In the case of PKWC, the “one-hybrid fitness for binding parS DNA” value is ≤ 0.2. For YTKT the value was ≤ 0.2; for IKPV, ≤ 0.2. Turning to KKPV, the “one-hybrid fitness for binding parS DNA” value is ≤ 0.2. To LARY belongs ≤ 0.2; to EYRT, ≤ 0.2; to GVNG, ≤ 0.2. Take TVSF: the “one-hybrid fitness for binding parS DNA” value was ≤ 0.2.

As to TCTV, the “one-hybrid fitness for binding parS DNA” value is ≤ 0.2. To CQSA belongs ≤ 0.2; to GGAC, ≤ 0.2. To NYPR belongs ≤ 0.2. For TARF the value was ≤ 0.2. As for CHTK, the “one-hybrid fitness for binding parS DNA” value was ≤ 0.2. To ATHG belongs ≤ 0.2; to SYQV, ≤ 0.2; to DSQS, ≤ 0.2.

Take LSTF: the “one-hybrid fitness for binding parS DNA” value was ≤ 0.2. For RVMK the value was ≤ 0.2; for NTHG, ≤ 0.2. As for NCPR, the “one-hybrid fitness for binding parS DNA” value is ≤ 0.2.

Consider PWDY, for which the “one-hybrid fitness for binding parS DNA” value is ≤ 0.2.

For NCKD, the “one-hybrid fitness for binding parS DNA” value was ≤ 0.2. For HQRM the value was ≤ 0.2; for HESG, ≤ 0.2; for ERTR, ≤ 0.2. As to RIMG, the “one-hybrid fitness for binding parS DNA” value is 0.996. To STAN belongs ≤ 0.2. Take LAPD: the “one-hybrid fitness for binding parS DNA” value was ≤ 0.2. To LPQA belongs ≤ 0.2. To YKLC belongs ≤ 0.2; to CLVT, ≤ 0.2; to HLFR, ≤ 0.2. For the variant CAPI, the “one-hybrid fitness for binding parS DNA” value is ≤ 0.2. To FRRL belongs ≤ 0.2.

Take DTPS: the “one-hybrid fitness for binding parS DNA” value is ≤ 0.2.

For the variant PLSL, the “one-hybrid fitness for binding parS DNA” value was ≤ 0.2. Take ARWT: the “one-hybrid fitness for binding parS DNA” value is ≤ 0.2. To WGKS belongs ≤ 0.2. To QKCD belongs ≤ 0.2; to TNYQ, ≤ 0.2; to TFSA, ≤ 0.2.

With GADG, the “one-hybrid fitness for binding parS DNA” value is ≤ 0.2. To LPWS belongs ≤ 0.2; to IMPV, ≤ 0.2. For HCMC the value was ≤ 0.2; for VTMR, ≤ 0.2; for LALD, ≤ 0.2.

Consider PRAI, for which the “one-hybrid fitness for binding parS DNA” value was ≤ 0.2. To PRKH belongs ≤ 0.2; to QVNT, ≤ 0.2; to QCLW, ≤ 0.2. For ILRA the value was ≤ 0.2; for CQSS, ≤ 0.2. As to GDVI, the “one-hybrid fitness for binding parS DNA” value is ≤ 0.2. For KVYC the value was ≤ 0.2; for NNGN, ≤ 0.2. Consider SPAK, for which the “one-hybrid fitness for binding parS DNA” value is ≤ 0.2.
